Holding throughout (test): Primary Screen for Target Class Profiling of Small Molecule Inhibitors of Methyltransferases
The target in assay [1] is Glycine N-methyltransferase (Homo sapiens) (UniProt Q14749). The settings on record: purified enzyme, MTase-Glo SAH luminescence; measured here: GNMT inhibition; at 40 µM; stronger effect = lower value. In outline:
(§1)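 Each enzyme was reacted with SAM and its substrate, with compounds tested once at 40 uM; SAH formed was read by MTase-Glo luminescence.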

For assay [2], the target named is Guanidinoacetate N-methyltransferase (Homo sapiens) (UniProt Q14353). The settings on record: purified enzyme, MTase-Glo SAH luminescence; measured here: GAMT inhibition; at 40 µM; stronger effect = lower value. Put shortly: as §1
Assay [3] deals with Histamine N-methyltransferase (Homo sapiens) (UniProt P50135). The settings on record: purified enzyme, MTase-Glo SAH luminescence; measured here: HNMT inhibition; at 40 µM; stronger effect = lower value. Put shortly:
as §1

In assay [4] the target is Nicotinamide N-methyltransferase (Homo sapiens) (UniProt P40261). The settings on record: purified enzyme, MTase-Glo SAH luminescence; measured here: NNMT inhibition; at 40 µM; stronger effect = lower value. Put shortly:
as §1

Assay [5] concerns the target Phenylethanolamine N-methyltransferase (Homo sapiens) (UniProt P11086). The settings on record: purified enzyme, MTase-Glo SAH luminescence; measured here: PNMT inhibition; at 40 µM; stronger effect = lower value. Put shortly:
as §1

This is one part of the list. Further columns of the screen follow, without active or inactive calls.
% is set by controls: 0 for no effect and ±100 for the full control effect.

As to `O=c1c2ccccc2n2c(=O)n(Cc3cccc(Cl)c3)nc2n1Cc1ccc(F)cc1`, the activity change, negative = inhibition in assay [1] came out at 9.14%; in assay [2], 4.03%; in assay [3], 9.29%; in assay [4] it was 1.84%; in assay [5] it was 3.72%.
As for `C=C(C)C1CC[C@]2(C(=O)O)CC[C@]3(C(=O)O)[C@H](CCC4[C@@]5(C)CC[C@H](O)C(C)(C)C5CC[C@]43C)C12` (stereo not given in full), the activity change, negative = inhibition in assay [1] is 0.254%; in assay [2], -0.738%; in assay [3], 5.11%; in assay [4] it was -11.1%; in assay [5], -8%.
Turning to `CCCn1c(=O)c2ccccc2n2c(=O)n(CC(=O)Nc3ccc4c(c3)OCCO4)nc12`, the activity change, negative = inhibition was 0.126% in assay [1]; 0% in assay [2]; 3.28% in assay [3]; -1.31% in assay [4]; 2.22% in assay [5].
As for `CC1CCC(NC(=O)Cn2c(=O)oc3cc(S(=O)(=O)N4CCCC4)ccc32)CC1` (stereo not given), the activity change, negative = inhibition in assay [1] is -3.65%; in assay [2], 0%; in assay [3] it was 4.22%; in assay [4] it was -2.28%; in assay [5], -23.6%.
Taken in the same sequence, the figures for `NC(=O)[C@@H]1C[C@H](Oc2cccnc2)CN1C(=O)C1CCCCC1` were -0.589%, 2.41%, 0.788%, 0.565% and -3.44%.
For `CCn1cc(C(=O)O)c(=O)c2ccc(C)nc21`, the activity change, negative = inhibition in assay [1] stood at 3.4%; in assay [2] it was 12.3%; in assay [3], 4.71%; in assay [4] it was 1.81%; in assay [5], 11.7%.
Regarding `CC(=O)O[C@H]1CC(C)(C)CC2[C@]13CO[C@@]21CCC2[C@@]4(C)CC[C@H](O[C@@H]5OC[C@H](O[C@@H]6O[C@H](CO)[C@@H](O)[C@H](O)[C@H]6O[C@@H]6OC[C@@H](O)[C@H](O)[C@H]6O)[C@H](O)[C@H]5O[C@@H]5O[C@H](CO)[C@@H](O)[C@H](O)[C@H]5O)[C@@](C)(CO)C4CC[C@@]2(C)[C@]1(C)C[C@H]3O` (stereo not given in full), the activity change, negative = inhibition in assay [1] was -1.15%; in assay [2], -5.36%; in assay [3] it was 6.15%; in assay [4], -12.1%; in assay [5], 4.09%.
In the same order, the values of `CN1CCCN(C(=O)CN2CC3CC(C2)[C@H]2CCCC(=O)N2C3)CC1` (stereo not given in full) are -2.29%, -2.09%, -2.31%, -5.59% and -3.27%.
As for `CN1C(=O)c2cc(C(=O)N3CCN(c4ccccc4)CC3)nn2CC1(C)C(=O)NCc1ccccc1` (stereo not given), the activity change, negative = inhibition is 6.25% in assay [1]; 0.489% in assay [2]; 9.3% in assay [3]; 13.4% in assay [4]; 8.93% in assay [5].
Taken in the same sequence, the figures for `CCC(C)NC(=O)c1ccc2c(=O)n(C(C)C)c3nn(CC(=O)Nc4cc(C)cc(C)c4)c(=O)n3c2c1` (stereo not given) were 0.841%, -1.94%, -1.42%, -4.64% and -4.59%.
Taken in the same sequence, the figures for `CC[C@@]1(O)CCN(C(=O)c2ccccc2OCc2ccccc2)C[C@H]1O` were 2.71%, 0.041%, 0.165%, -0.669% and -13.8%.
In the same order, the values of `COc1ccccc1CNC(=O)C1(C)Cn2nc(-c3ccccc3)cc2C(=O)N1c1ccc(F)cc1` (stereo not given) are 0.243%, 2.56%, 1.64%, 2.81% and -5.25%.
With `CCCCn1ccc(N2CCC(c3ccccc3)CC2)c(Cl)c1=O`, the activity change, negative = inhibition in assay [1] was -15.6%; in assay [2] it was -9.78%; in assay [3] it was 3.35%; in assay [4], -23.4%; in assay [5] it was -7.49%.
As for `CN(C(=O)c1cccn1C)C1CCc2nn(C)c(=O)n2CC1` (stereo not given), the activity change, negative = inhibition in assay [1] was -2.04%; in assay [2] it was 1.57%; in assay [3], -2.98%; in assay [4], -0.157%; in assay [5], -13.3%.
Taken in the same sequence, the figures for `Cc1cccc(-c2nnn3c2nc(N2CCCC2)c2cc(Cl)ccc23)c1` were -1.66%, -1.79%, 2.69%, 5.81% and -1.56%.
For `C#CCN(C)Cc1ccccc1`, the activity change, negative = inhibition in assay [1] was -3.63%; in assay [2] it was 2.97%; in assay [3] it was -1.06%; in assay [4] it was -9.96%; in assay [5], -0.526%.
Turning to `COc1ccc(N2C(=O)c3cc4ccccc4n3CC2(C)C(=O)NCCC(C)C)cc1` (stereo not given), the activity change, negative = inhibition in assay [1] is 1.04%; in assay [2], 4.73%; in assay [3], 2.99%; in assay [4], 7.02%; in assay [5], -2.2%.
In the same order, the values of `O=c1[nH]c2ccccc2c2ccccc12` are -7.17%, 9.09%, 1.57%, -9.77% and 1.19%.
As to `CC(C)OCCCN1C(=O)c2ccc(-c3ccccc3)n2CC1(C)C(=O)NC1CCCCC1` (stereo not given), the activity change, negative = inhibition was found to be 4.42% in assay [1]; 6.28% in assay [2]; 2.44% in assay [3]; 4.41% in assay [4]; 2.34% in assay [5].
Taken in the same sequence, the figures for `O=C(N[C@H](Cc1ccccc1)C(=O)O)c1sc2cc(F)ccc2c1Cl` were -10.8%, 0.435%, 8.75%, -23.1% and -0.768%.
As for `CC1(C(=O)NCc2ccccc2)Cn2c(cc3ccccc32)C(=O)N1C1CCN(Cc2ccccc2)CC1` (stereo not given), the activity change, negative = inhibition is -0.579% in assay [1]; -0.467% in assay [2]; 4.52% in assay [3]; -0.849% in assay [4]; -1.12% in assay [5].
As for `C=C1C(=O)O[C@@H]2[C@H]1CCC(C)=C(CCC(=O)O)[C@@]2(C)O`, the activity change, negative = inhibition in assay [1] is 2%; in assay [2], 1.93%; in assay [3], 9.69%; in assay [4] it was -8.2%; in assay [5], 1.24%.
For `CCCn1c(=O)c2ccc(C(=O)NC3CCCC3)cc2n2c(=O)n(CC(=O)NCc3ccccc3)nc12`, the activity change, negative = inhibition in assay [1] was 4.91%; in assay [2], 0%; in assay [3], 8.02%; in assay [4], -0.271%; in assay [5] it was 5.81%.
In the case of `CC1(C(=O)NC2CCCC2)Cn2c(nc3ccccc32)C(=O)N1Cc1cccc(Cl)c1` (stereo not given), the activity change, negative = inhibition in assay [1] was determined as 3.67%; in assay [2], 0%; in assay [3], 6.46%; in assay [4], 6.97%; in assay [5] it was 2.71%.
On to `Cc1ccc(CNC(=O)CNC(=O)C2(C)Cn3c(cc4ccccc43)C(=O)N2C)cc1` (stereo not given), for which the activity change, negative = inhibition is -1.88% in assay [1]; 4.75% in assay [2]; -0.858% in assay [3]; 6.35% in assay [4]; -1.16% in assay [5].
Taken in the same sequence, the figures for `CCc1ccc(NC(=O)CSc2nnc3n(Cc4ccc(C)cc4)c(=O)c4ccccc4n23)cc1` were 5.88%, 0.101%, 13.2%, 8% and 5.37%.
As to `O=S(=O)(c1ccccc1F)N1CC(c2nc(Cc3ccccc3)no2)C1`, the activity change, negative = inhibition in assay [1] was -4.5%; in assay [2], 0.504%; in assay [3], 1.75%; in assay [4], -0.533%; in assay [5] it was -2.62%.
Taken in the same sequence, the figures for `CN(Cc1ccc(C(=O)O)cc1)c1ccc(OCc2c(-c3c(Cl)cccc3Cl)noc2C2CC2)nc1C(F)(F)F` were -25.8%, -12.1%, -8.49%, -84% and -5.75%.
On to `Cc1ccc(CNC(=O)C2(C)Cn3nc(C(=O)NCCN4CCCC4)cc3C(=O)N2C)cc1` (stereo not given), for which the activity change, negative = inhibition in assay [1] came out at 7.35%; in assay [2], 0.486%; in assay [3], 2.43%; in assay [4], 7.37%; in assay [5], 4.42%.
In the same order, the values of `COC(=O)c1ncn2c1C(=O)N(c1cccc(SC)c1)C(C)(C(=O)NC1CCCCC1)C2` (stereo not given) are 1.08%, 0%, -3.36%, 0.268% and 2.26%.

Source of the values: PubChem BioAssay AID1745853 (National Center for Advancing Translational Sciences (NCATS), 2022).
